FireProtDB (doi:10.1021/bi982078m)

Conditions: Gallus gallus, pH 2, 25 °C, Absorbance, HCl, reversible: yes

Substance: Lysozyme C wild type (sequence not shown)
- denaturant m value (GdnHCl, KCl 0.1-1.0 M): 2.03 kcal/mol/M
- denaturant midpoint (higher = more stable) (GdnHCl, KCl 0.1-1.0 M): 2.06 M
- unfolding free energy (GdnHCl, KCl 0.1-1.0 M): 4.18 kcal/mol
- denaturant m value (Urea, KCl 0.30-0.50 M): 1.1 kcal/mol/M
- denaturant midpoint (higher = more stable) (Urea, KCl 0.30-0.50 M): 3.98 M
- unfolding free energy (Urea, KCl 0.30-0.50 M): 4.38 kcal/mol
- denaturant m value (Urea, KCl 0.75-1.00 M): 1.13 kcal/mol/M
- denaturant midpoint (higher = more stable) (Urea, KCl 0.75-1.00 M): 4.68 M
- unfolding free energy (Urea, KCl 0.75-1.00 M): 5.29 kcal/mol
